We go through 18 molecules from the supplement of paper PMC10369915.

This is one part of the list. No stated cut-off is given here; in the data, active = 3.2 or more and inactive = the rest. The signal is at background level for most entries.
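Further: displayed peptides selected on beads carrying the immobilized SH2 domain, with library peptides lacking any tyrosine serving as negative controls.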

In the first experiment the target is SHP2 C-SH2 domain E139D. Kind of experiment: enrichment score (SH2-bound / input frequency) (ratio); bacterial display of known human phosphotyrosine sites (pTyr-Var adds point mutants) read by sequencing; higher = stronger binding; tyrosines were phosphorylated by kinases first. The settings on record: peptide library: pTyr-Var.
Consider RRAKGYPIDLF [ITGB2_Y125_YF], for which the enrichment score is inactive: 0.378.
As to EQMASYFGHSV [ITGA2B_Y319], the enrichment score was inactive: 0.963.
As to GDDLSYGDVPP [IRS1_Y151_E147D], the enrichment score is inactive: 0.35.
On the same count and under the same terms, next, GKVFVYHGSSL [ITGA7_Y458_I457V]: inactive: 1.14; PARLEYYENEK [IRS1_Y46]: inactive: 1.26.
For the molecule HRDDGYMPMSP [IRS1_Y612_T608R], the enrichment score was inactive: 0.6.
PINLYYLMDLS [ITGB2_Y131_D128N]: the enrichment score is inactive: 1.45.
For GRVYVYRLSEQ [ITGAE_Y551], the enrichment score is inactive: 2.47.
Consider TGTQLYGRFGS [ITGA2B_Y384], for which the enrichment score is inactive: 0.723.
For the molecule LSVEIHDRREY [ITGB7_Y753_Y753H], the enrichment score is inactive: 1.39.
Regarding RRAKGYPIDLY [ITGB2_Y125], the enrichment score is inactive: 0.225.
On the same count and under the same terms, then EEGRVYVYHLS [ITGAE_Y549_R552H], with inactive: 0.606; and RRAKGYPIFLF [ITGB2_Y125_D128Y_YF], with inactive: 0.278.
On the same count and under the same terms, then PLQSEYSSIST [ITGB4_Y1760_T1764S], with inactive: 0.585; and EVGHVYLFLQP [ITGA2B_Y360_R358H], with inactive: 0.584.
Still for that read-out and setting: then WDLSEYSFKDP [ITGA3_Y237_YF], with inactive: 1.75; and PLQSEYSSITT [ITGB4_Y1760], with inactive: 0.555.
As for KKGIVYIFNGR [ITGAV_Y404], the enrichment score was active: 4.6.

The next experiment concerns the target SHP2 C-SH2 domain wild-type. Described as above. To be noted: peptide library: pTyr-Var.
Regarding RRAKGYPIDLF [ITGB2_Y125_YF], the enrichment score is inactive: 0.235.
On to EQMASYFGHSV [ITGA2B_Y319], for which the enrichment score is inactive: 0.694.
As for GDDLSYGDVPP [IRS1_Y151_E147D], the enrichment score is inactive: 0.39.
For GKVFVYHGSSL [ITGA7_Y458_I457V], the enrichment score was inactive: 0.841.
Still for that read-out and setting: next, PARLEYYENEK [IRS1_Y46]: inactive: 1.22.
Regarding HRDDGYMPMSP [IRS1_Y612_T608R], the enrichment score was inactive: 0.721.
Same read-out and setting: next, PINLYYLMDLS [ITGB2_Y131_D128N]: inactive: 1.37; GRVYVYRLSEQ [ITGAE_Y551]: active: 4.9; TGTQLYGRFGS [ITGA2B_Y384]: inactive: 0.748.
LSVEIHDRREY [ITGB7_Y753_Y753H]: the enrichment score is inactive: 1.07.
As for RRAKGYPIDLY [ITGB2_Y125], the enrichment score was inactive: 0.27.
For the molecule EEGRVYVYHLS [ITGAE_Y549_R552H], the enrichment score was inactive: 0.703.
Consider RRAKGYPIFLF [ITGB2_Y125_D128Y_YF], for which the enrichment score is inactive: 0.231.
As to PLQSEYSSIST [ITGB4_Y1760_T1764S], the enrichment score is inactive: 0.457.
Take EVGHVYLFLQP [ITGA2B_Y360_R358H]: the enrichment score was inactive: 0.761.
Take WDLSEYSFKDP [ITGA3_Y237_YF]: the enrichment score is inactive: 1.11.
Take PLQSEYSSITT [ITGB4_Y1760]: the enrichment score is inactive: 0.698.
For KKGIVYIFNGR [ITGAV_Y404], the enrichment score is active: 3.59.

The next experiment concerns the target SHP2 N-SH2 domain L43F. The experiment is described as above. To be noted: peptide library: pTyr-Var.
For the molecule RRAKGYPIDLF [ITGB2_Y125_YF], the enrichment score was inactive: 0.359.
Still for that read-out and setting: next, EQMASYFGHSV [ITGA2B_Y319]: inactive: 0.758.
On the same count and under the same terms, next, GDDLSYGDVPP [IRS1_Y151_E147D]: inactive: 0.353; GKVFVYHGSSL [ITGA7_Y458_I457V]: inactive: 1.1; PARLEYYENEK [IRS1_Y46]: inactive: 1.21.
On to HRDDGYMPMSP [IRS1_Y612_T608R], for which the enrichment score was inactive: 0.741.
On the same count and under the same terms, then PINLYYLMDLS [ITGB2_Y131_D128N], with inactive: 1.48.
On to GRVYVYRLSEQ [ITGAE_Y551], for which the enrichment score is inactive: 2.89.
As for TGTQLYGRFGS [ITGA2B_Y384], the enrichment score is inactive: 0.799.
As to LSVEIHDRREY [ITGB7_Y753_Y753H], the enrichment score was inactive: 0.97.
In the case of RRAKGYPIDLY [ITGB2_Y125], the enrichment score was inactive: 0.305.
For EEGRVYVYHLS [ITGAE_Y549_R552H], the enrichment score is inactive: 0.617.
Still for that read-out and setting: then RRAKGYPIFLF [ITGB2_Y125_D128Y_YF], with inactive: 0.113; and PLQSEYSSIST [ITGB4_Y1760_T1764S], with inactive: 0.645; and EVGHVYLFLQP [ITGA2B_Y360_R358H], with inactive: 0.631.
As for WDLSEYSFKDP [ITGA3_Y237_YF], the enrichment score was inactive: 1.09.
Same read-out and setting: then PLQSEYSSITT [ITGB4_Y1760], with inactive: 0.833; and KKGIVYIFNGR [ITGAV_Y404], with active: 4.15.

The next experiment addresses SHP2 N-SH2 domain T42A. Described as above. To be noted: peptide library: pTyr-Var.
RRAKGYPIDLF [ITGB2_Y125_YF]: the enrichment score is inactive: 0.335.
EQMASYFGHSV [ITGA2B_Y319]: the enrichment score was inactive: 0.723.
The same measure, in the same setting: next, GDDLSYGDVPP [IRS1_Y151_E147D]: inactive: 0.438; GKVFVYHGSSL [ITGA7_Y458_I457V]: inactive: 0.949; PARLEYYENEK [IRS1_Y46]: inactive: 1.83.
Consider HRDDGYMPMSP [IRS1_Y612_T608R], for which the enrichment score was inactive: 0.501.
Turning to PINLYYLMDLS [ITGB2_Y131_D128N], the enrichment score was inactive: 1.29.
Turning to GRVYVYRLSEQ [ITGAE_Y551], the enrichment score was inactive: 1.6.
For TGTQLYGRFGS [ITGA2B_Y384], the enrichment score was inactive: 0.687.
For LSVEIHDRREY [ITGB7_Y753_Y753H], the enrichment score was inactive: 1.02.
For RRAKGYPIDLY [ITGB2_Y125], the enrichment score is inactive: 0.275.
The same measure, in the same setting: then EEGRVYVYHLS [ITGAE_Y549_R552H], with inactive: 0.495; and RRAKGYPIFLF [ITGB2_Y125_D128Y_YF], with inactive: 0.208.
As for PLQSEYSSIST [ITGB4_Y1760_T1764S], the enrichment score is inactive: 0.588.
Still for that read-out and setting: next, EVGHVYLFLQP [ITGA2B_Y360_R358H]: inactive: 0.494; WDLSEYSFKDP [ITGA3_Y237_YF]: inactive: 1.23.
Consider PLQSEYSSITT [ITGB4_Y1760], for which the enrichment score was inactive: 0.634.
Consider KKGIVYIFNGR [ITGAV_Y404], for which the enrichment score was active: 3.38.

The target of the next experiment is SHP2 N-SH2 domain T52S. Described as above. To be noted: peptide library: pTyr-Var.
RRAKGYPIDLF [ITGB2_Y125_YF]: the enrichment score was inactive: 0.295.
With EQMASYFGHSV [ITGA2B_Y319], the enrichment score is inactive: 0.797.
As to GDDLSYGDVPP [IRS1_Y151_E147D], the enrichment score is inactive: 0.477.
With GKVFVYHGSSL [ITGA7_Y458_I457V], the enrichment score is inactive: 1.03.
For the molecule PARLEYYENEK [IRS1_Y46], the enrichment score is inactive: 1.03.
In the case of HRDDGYMPMSP [IRS1_Y612_T608R], the enrichment score was inactive: 0.646.
On to PINLYYLMDLS [ITGB2_Y131_D128N], for which the enrichment score is inactive: 1.62.
The same measure, in the same setting: next, GRVYVYRLSEQ [ITGAE_Y551]: active: 3.5.
For TGTQLYGRFGS [ITGA2B_Y384], the enrichment score is inactive: 0.711.
LSVEIHDRREY [ITGB7_Y753_Y753H]: the enrichment score is inactive: 1.01.
Turning to RRAKGYPIDLY [ITGB2_Y125], the enrichment score was inactive: 0.233.
In the case of EEGRVYVYHLS [ITGAE_Y549_R552H], the enrichment score was inactive: 0.459.
The same measure, in the same setting: then RRAKGYPIFLF [ITGB2_Y125_D128Y_YF], with inactive: 0.204; and PLQSEYSSIST [ITGB4_Y1760_T1764S], with inactive: 0.463; and EVGHVYLFLQP [ITGA2B_Y360_R358H], with inactive: 0.539.
For the molecule WDLSEYSFKDP [ITGA3_Y237_YF], the enrichment score is inactive: 1.62.
Take PLQSEYSSITT [ITGB4_Y1760]: the enrichment score was inactive: 0.611.
Still for that read-out and setting: next, KKGIVYIFNGR [ITGAV_Y404]: active: 4.01.

A further experiment concerns the target SHP2 N-SH2 domain wild-type. Described as above. To be noted: peptide library: pTyr-Var.
For RRAKGYPIDLF [ITGB2_Y125_YF], the enrichment score was inactive: 0.36.
For the molecule EQMASYFGHSV [ITGA2B_Y319], the enrichment score is inactive: 0.745.
On to GDDLSYGDVPP [IRS1_Y151_E147D], for which the enrichment score is inactive: 0.94.
With GKVFVYHGSSL [ITGA7_Y458_I457V], the enrichment score was inactive: 0.987.
As for PARLEYYENEK [IRS1_Y46], the enrichment score is inactive: 1.39.
As to HRDDGYMPMSP [IRS1_Y612_T608R], the enrichment score was inactive: 0.711.
As to PINLYYLMDLS [ITGB2_Y131_D128N], the enrichment score is inactive: 1.54.
For GRVYVYRLSEQ [ITGAE_Y551], the enrichment score was inactive: 1.44.
Turning to TGTQLYGRFGS [ITGA2B_Y384], the enrichment score is inactive: 0.696.
For LSVEIHDRREY [ITGB7_Y753_Y753H], the enrichment score is inactive: 1.14.
For the molecule RRAKGYPIDLY [ITGB2_Y125], the enrichment score was inactive: 0.282.
Consider EEGRVYVYHLS [ITGAE_Y549_R552H], for which the enrichment score was inactive: 0.626.
As to RRAKGYPIFLF [ITGB2_Y125_D128Y_YF], the enrichment score was inactive: 0.262.
Regarding PLQSEYSSIST [ITGB4_Y1760_T1764S], the enrichment score is inactive: 0.721.
In the case of EVGHVYLFLQP [ITGA2B_Y360_R358H], the enrichment score was inactive: 0.813.
Still for that read-out and setting: next, WDLSEYSFKDP [ITGA3_Y237_YF]: inactive: 1.24.
Consider PLQSEYSSITT [ITGB4_Y1760], for which the enrichment score was inactive: 0.66.
As for KKGIVYIFNGR [ITGAV_Y404], the enrichment score is active: 3.52.
